Source: patent US20170166621A1 (Novartis, published 2017)

T1: beta-klotho (UniProt Q86Z14 1-1044, limits assumed)
T1 sequence (looked up): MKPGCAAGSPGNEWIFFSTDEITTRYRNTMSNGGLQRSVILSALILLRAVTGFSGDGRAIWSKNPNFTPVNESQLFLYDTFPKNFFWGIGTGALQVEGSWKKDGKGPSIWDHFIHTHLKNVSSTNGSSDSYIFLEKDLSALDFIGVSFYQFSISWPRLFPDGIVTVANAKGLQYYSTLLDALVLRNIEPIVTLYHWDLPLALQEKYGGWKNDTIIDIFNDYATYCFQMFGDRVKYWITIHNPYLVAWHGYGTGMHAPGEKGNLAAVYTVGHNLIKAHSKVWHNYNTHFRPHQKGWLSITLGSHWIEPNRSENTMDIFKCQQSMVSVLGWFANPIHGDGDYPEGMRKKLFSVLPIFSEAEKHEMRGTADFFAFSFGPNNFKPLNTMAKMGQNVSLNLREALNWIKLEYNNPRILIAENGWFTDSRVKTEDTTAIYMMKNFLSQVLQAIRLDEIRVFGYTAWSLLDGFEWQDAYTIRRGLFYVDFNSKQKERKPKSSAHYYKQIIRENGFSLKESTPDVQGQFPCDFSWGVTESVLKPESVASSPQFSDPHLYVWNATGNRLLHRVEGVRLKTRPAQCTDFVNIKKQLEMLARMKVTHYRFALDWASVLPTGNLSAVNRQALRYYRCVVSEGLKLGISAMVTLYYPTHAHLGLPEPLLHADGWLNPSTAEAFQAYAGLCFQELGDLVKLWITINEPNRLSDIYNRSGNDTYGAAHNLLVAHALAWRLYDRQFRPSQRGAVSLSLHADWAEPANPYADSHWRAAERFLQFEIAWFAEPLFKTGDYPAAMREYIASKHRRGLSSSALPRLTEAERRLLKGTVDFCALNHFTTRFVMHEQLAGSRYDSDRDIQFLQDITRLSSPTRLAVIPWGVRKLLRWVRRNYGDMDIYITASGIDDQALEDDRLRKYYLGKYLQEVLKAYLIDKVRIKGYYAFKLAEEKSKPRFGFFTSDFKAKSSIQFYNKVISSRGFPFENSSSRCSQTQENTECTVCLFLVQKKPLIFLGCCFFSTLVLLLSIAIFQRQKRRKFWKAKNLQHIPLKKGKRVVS

T2: GLP-1R of INS1E rat insulinoma cells (rat, UniProt P32301 22-463)
T2 sequence (looked up): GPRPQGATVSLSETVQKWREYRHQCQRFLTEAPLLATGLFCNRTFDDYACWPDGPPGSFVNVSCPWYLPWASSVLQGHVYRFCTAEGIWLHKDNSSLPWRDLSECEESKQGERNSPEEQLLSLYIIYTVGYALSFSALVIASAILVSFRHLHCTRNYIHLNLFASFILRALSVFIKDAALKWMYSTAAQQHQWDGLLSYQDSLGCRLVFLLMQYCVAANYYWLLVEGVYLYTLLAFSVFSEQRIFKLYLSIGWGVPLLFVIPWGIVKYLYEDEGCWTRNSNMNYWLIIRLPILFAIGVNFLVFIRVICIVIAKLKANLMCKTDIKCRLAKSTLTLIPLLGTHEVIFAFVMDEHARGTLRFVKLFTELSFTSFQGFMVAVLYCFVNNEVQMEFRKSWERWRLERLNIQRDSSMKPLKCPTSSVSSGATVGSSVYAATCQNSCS


Key:
Test in all cases: cell-based or functional assay
[1] = target: GLP-1 receptor (UniProt P43220 24-463, limits assumed)
[2] = target: T1, beta-klotho
[3] = target: T2, GLP-1R of INS1E rat insulinoma cells

Binder	GLP-1R EC50 [1] [nM]	% γ-max vs. WT FGF21 (pERK, HEK293-KLB) [2] [%]	Potency (Fold over WT FGF21) (pERK, HEK293-KLB) [2] [fold]	βklotho pERK EC50 (nM) [2] [nM]	GSIS EC50 (nM) (avg of 2) [3]
GLP-1(7-35; A8S)-Fc-(GGGGS)3-FGF21(33-209; Q55C-R105K-G148C-K150R-P158S-S195A-P199G-G202A) (Fc fusion) HSEGTFTSDVSSYLEGQAAKEFIAWLVK[skipping human IgG1 Fc with changes]GGGGSGGGGSGGGGSDSSPLLQFGGQVRQRYLYTDDACQTEAHLEIREDGTVGGAADQSPESLLQLKALKPGVIQILGVKTSRFLCQKPDGALYGSLHFDPEACSFRELLLEDGYNVYQSEAHGLPLHLPCNRSPHRDPASRGPARFLPLPGLPPALPEPPGILAPQPPDVGSSDPLAMVGGSQARSPSYAS	5.9	89	0.37	1.24	–
GLP-1(7-35; A8S)-(GGGGS)3-Fc-GS-FGF21(33-209; Q55C-A109T-G148C-K150R-P158S-S195A-P199G-G202A) (Fc fusion) HSEGTFTSDVSSYLEGQAAKEFIAWLVKGGGGGSGGGGSGGGGS[skipping human IgG1 Fc with changes]GSDSSPLLQFGGQVRQRYLYTDDACQTEAHLEIREDGTVGGAADQSPESLLQLKALKPGVIQILGVKTSRFLCQRPDGTLYGSLHFDPEACSFRELLLEDGYNVYQSEAHGLPLHLPCNRSPHRDPASRGPARFLPLPGLPPALPEPPGILAPQPPDVGSSDPLAMVGGSQARSPSYAS	0.023	50	0.21	0.55	4.6
GLP-1(7-35; A8S)-(GGGGS)3-Fc-GS-FGF21(33-209; Q55C-R105K-G148C-K150R-P158S-S195A-P199G-G202A) (Fc fusion) HSEGTFTSDVSSYLEGQAAKEFIAWLVKGGGGGSGGGGSGGGGS[skipping human IgG1 Fc with changes]GSDSSPLLQFGGQVRQRYLYTDDACQTEAHLEIREDGTVGGAADQSPESLLQLKALKPGVIQILGVKTSRFLCQKPDGALYGSLHFDPEACSFRELLLEDGYNVYQSEAHGLPLHLPCNRSPHRDPASRGPARFLPLPGLPPALPEPPGILAPQPPDVGSSDPLAMVGGSQARSPSYAS	0.025	56	0.32	0.85	6.8
GLP-1(7-35; A8S)-(GGGGS)3-Fc-(GGGGS)3-FGF21(33-209; Q55C-R105K-G148C-K150R-P158S-S195A-P199G-G202A) (Fc fusion) HSEGTFTSDVSSYLEGQAAKEFIAWLVKGGGGGSGGGGSGGGGS[skipping human IgG1 Fc with changes]GGGGSGGGGSGGGGSDSSPLLQFGGQVRQRYLYTDDACQTEAHLEIREDGTVGGAADQSPESLLQLKALKPGVIQILGVKTSRFLCQKPDGALYGSLHFDPEACSFRELLLEDGYNVYQSEAHGLPLHLPCNRSPHRDPASRGPARFLPLPGLPPALPEPPGILAPQPPDVGSSDPLAMVGGSQARSPSYAS	0.025	67	0.37	1.78	33
GLP-1(7-35; A8S)-(GGGGS)-Fc-(GGGGS)3-FGF21(33-209; Q55C-R105K-G148C-K150R-P158S-S195A-P199G-G202A) (Fc fusion) HSEGTFTSDVSSYLEGQAAKEFIAWLVKGGGGGS[skipping human IgG1 Fc with changes]GGGGSGGGGSGGGGSDSSPLLQFGGQVRQRYLYTDDACQTEAHLEIREDGTVGGAADQSPESLLQLKALKPGVIQILGVKTSRFLCQKPDGALYGSLHFDPEACSFRELLLEDGYNVYQSEAHGLPLHLPCNRSPHRDPASRGPARFLPLPGLPPALPEPPGILAPQPPDVGSSDPLAMVGGSQARSPSYAS	0.252	70	0.21	1.01	128

Now from value to binder:

GLP-1R EC50 [1] [nM]	% γ-max vs. WT FGF21 (pERK, HEK293-KLB) [2] [%]	Potency (Fold over WT FGF21) (pERK, HEK293-KLB) [2] [fold]	βklotho pERK EC50 (nM) [2] [nM]	GSIS EC50 (nM) (avg of 2) [3]	Binder
0.024	101	1.2	2.1	–	GLP-1(7-35; A8S)-S(GGGGS)3A-Fc-(GGGGS)3-FGF21(33-209; Q55C-R105K-G148C-K150R-P158S-S195A-P199G-G202A) (Fc fusion) HSEGTFTSDVSSYLEGQAAKEFIAWLVKGGSGGGGSGGGGSGGGGSA[skipping human IgG1 Fc with changes]GGGGSGGGGSGGGGSDSSPLLQFGGQVRQRYLYTDDACQTEAHLEIREDGTVGGAADQSPESLLQLKALKPGVIQILGVKTSRFLCQKPDGALYGSLHFDPEACSFRELLLEDGYNVYQSEAHGLPLHLPCNRSPHRDPASRGPARFLPLPGLPPALPEPPGILAPQPPDVGSSDPLAMVGGSQARSPSYAS
18.4	61	0.37	1	–	GLP-1(7-35; A8S)-Fc-GS-FGF21(33-209; Q55C-A109T-G148C-K150R-P158S-S195A-P199G-G202A) (Fc fusion) HSEGTFTSDVSSYLEGQAAKEFIAWLVK[skipping human IgG1 Fc with changes]GSDSSPLLQFGGQVRQRYLYTDDACQTEAHLEIREDGTVGGAADQSPESLLQLKALKPGVIQILGVKTSRFLCQRPDGTLYGSLHFDPEACSFRELLLEDGYNVYQSEAHGLPLHLPCNRSPHRDPASRGPARFLPLPGLPPALPEPPGILAPQPPDVGSSDPLAMVGGSQARSPSYAS
8.99	51	0.34	0.92	–	GLP-1(7-35; A8S)-Fc-GS-FGF21(33-209; Q55C-R105K-G148C-K150R-P158S-S195A-P199G-G202A) (Fc fusion) HSEGTFTSDVSSYLEGQAAKEFIAWLVK[skipping human IgG1 Fc with changes]GSDSSPLLQFGGQVRQRYLYTDDACQTEAHLEIREDGTVGGAADQSPESLLQLKALKPGVIQILGVKTSRFLCQKPDGALYGSLHFDPEACSFRELLLEDGYNVYQSEAHGLPLHLPCNRSPHRDPASRGPARFLPLPGLPPALPEPPGILAPQPPDVGSSDPLAMVGGSQARSPSYAS
0.042	97	5.8	9.8	–	GLP-1(7-35; A8S)-S(GGGGS)3A-Fc-(GGGGS)3-FGF21(33-209; Q55C-R105K-G148C-K150R-P158S-S195A-G202A-A208E) (Fc fusion) HSEGTFTSDVSSYLEGQAAKEFIAWLVKGGSGGGGSGGGGSGGGGSA[skipping human IgG1 Fc with changes]GGGGSGGGGSGGGGSDSSPLLQFGGQVRQRYLYTDDACQTEAHLEIREDGTVGGAADQSPESLLQLKALKPGVIQILGVKTSRFLCQKPDGALYGSLHFDPEACSFRELLLEDGYNVYQSEAHGLPLHLPCNRSPHRDPASRGPARFLPLPGLPPALPEPPGILAPQPPDVGSSDPLAMVGPSQARSPSYES
0.041	76	7.6	13	–	GLP-1(7-35; A8S)-S(GGGGS)3A-Fc-(GGGGS)3-FGF21(33-209; Q55C-R105K-G148C-P158S-K150R-S195A-G202A-A208D) (Fc fusion) HSEGTFTSDVSSYLEGQAAKEFIAWLVKGGSGGGGSGGGGSGGGGSA[skipping human IgG1 Fc with changes]GGGGSGGGGSGGGGSDSSPLLQFGGQVRQRYLYTDDACQTEAHLEIREDGTVGGAADQSPESLLQLKALKPGVIQILGVKTSRFLCQKPDGALYGSLHFDPEACSFRELLLEDGYNVYQSEAHGLPLHLPCNRSPHRDPASRGPARFLPLPGLPPALPEPPGILAPQPPDVGSSDPLAMVGPSQARSPSYDS
